{"source": "PubChem BioAssay AID485364", "about": "(National Center for Advancing Translational Sciences (NCATS), 2010)", "note": "Screen size: about 360,000 compounds; about 11,000 (3.1%) were called active. This list was built around the results that the source calls inconclusive (neither active nor inactive); the mix of calls is not that of the screen. The call rests on the fitted dose curve; in most records, active means well fitted inhibition curve with a large enough effect; inconclusive means small, poorly fitted or top-dose-only effect; inactive means no such curve, though single readings can be large or run the other way. No potency is given beside an inconclusive call; the fits are too rough."}
{"molecular_target": "Schistosoma mansoni thioredoxin glutathione reductase (TGR) (UniProt Q962Y6)", "test": "qHTS Assay for the Inhibitors of Schistosoma Mansoni Peroxiredoxins; further: nearly all actives have a fitted effect of over 60% in size; further: potency means the concentration at half of the fitted maximal effect; tags describe the fitted curve by direction and shape", "conditions": "purified TGR, DTNB reduction, TNB absorbance 405 nm; series mostly up to 114 µM", "in_short": "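First, TGR (20 nM dispensed) and NADPH were mixed with compound. Second, a 15 min room-temperature incubation followed. Third, further NADPH and then DTNB were added to start the reaction. Finally, TNB absorbance was monitored kinetically.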"}
{"compound": "O=C(O)c1c(C(=O)N2N=C3/C(=C/c4ccccc4)CCCC3C2c2ccccc2)cccc1[N+](=O)[O-]", "note": "(stereo unspecified)", "Potency": "inconclusive [inhibitor, partial curve]"}
{"compound": "O=C(c1ccco1)N1N=C(c2ccc(Cl)cc2)CC1(O)C(F)(F)F", "note": "(stereo unspecified)", "Potency": "inactive"}
{"compound": "CCN(Cc1ccccc1OC)CC1CCCN(CCc2cccc(OC)c2)C1", "note": "(stereo unspecified)", "Potency": "inactive"}
{"compound": "Cc1cc2oc(C(=O)Nc3ccc(S(N)(=O)=O)cc3)c(C)c2cc1Cl", "Potency": "inactive"}
{"compound": "COC(=O)c1ccc(-n2c(CCC(=O)O)ccc2-c2ccccc2)cc1", "Potency": "active: 14.1 µM"}
{"compound": "COCCN(C(=O)COC(=O)COc1ccc(Cl)c(C)c1)c1c(N)n(Cc2ccccc2)c(=O)[nH]c1=O", "Potency": "inactive"}
{"compound": "CC(=O)Nc1ccc(S(=O)(=O)NNC(=S)NCc2ccco2)cc1", "Potency": "inconclusive [inhibitor, partial curve]"}
{"compound": "CC(Sc1nc(-c2ccccc2)cc(C(F)(F)F)n1)C(=O)NCc1ccco1", "note": "(stereo unspecified)", "Potency": "inconclusive [inhibitor, partial curve]"}
{"compound": "O=C(NCc1ccco1)c1ccc2c(c1)N(Cc1c(F)cccc1Cl)C(=O)c1ccccc1S2", "Potency": "inactive"}
{"compound": "Cc1ccc(S(=O)(=O)N2CCCC(C(=O)N(Cc3cccs3)C3CC3)C2)cc1", "note": "(stereo unspecified)", "Potency": "inconclusive [inhibitor, partial curve]"}
{"compound": "COc1ccc(S(=O)(=O)N2CCCN(C)CC2)cc1", "Potency": "active: 39.8 µM"}
{"compound": "COc1ccc(CCNC(=O)C2CCN(S(=O)(=O)c3cccc4cccnc34)CC2)cc1OC", "Potency": "inconclusive [inhibitor, single point]"}
{"compound": "O=C(COc1ccccc1)N1CCN(C(=O)c2ccco2)CC1", "Potency": "inconclusive [inhibitor, partial curve]"}
{"compound": "CN(C1CCCCC1)C(CNS(=O)(=O)c1ccc(Cl)cc1)c1ccccc1", "note": "(stereo unspecified)", "Potency": "inactive"}
{"compound": "CCOC(=O)N1CCN(c2cc(=O)n(-c3cccc(C)c3)c(=O)[nH]2)CC1", "Potency": "inconclusive [inhibitor, partial curve]"}
{"compound": "COc1ccc(CS(=O)(=O)/C(Cl)=C(/Cl)C(=O)Nc2ccc(OC)nc2)cc1", "Potency": "active: 10 µM"}
{"compound": "O=C(O)[C@@H]1CCCN(S(=O)(=O)c2cccc3cccnc23)C1", "Potency": "inconclusive [inhibitor, partial curve]"}
{"compound": "Cc1cc2cc(CNC(=O)c3ccc(Br)o3)ccc2n1C", "Potency": "active: 14.1 µM"}
{"compound": "Cc1cc(C(=O)O)ccc1-n1c(C)cc(/C=C2\\SC(=O)NC2=O)c1C", "Potency": "inconclusive [inhibitor, single point]"}
{"compound": "O=C1C(Cl)=C(NCCN2CCOCC2)C(=O)c2ccccc21", "Potency": "inconclusive [inhibitor, partial curve]"}
{"compound": "CC(=O)N1CCC(C(=O)Nc2ccc(S(=O)(=O)NCCc3ccccc3)cc2)CC1", "Potency": "inactive"}
{"compound": "O=c1c(C(c2ccccc2)c2c(O)sc3ccccc3c2=O)c(O)sc2ccccc12", "Potency": "inconclusive [inhibitor, partial curve, poor fit]"}
{"compound": "O=C1c2ccccc2NC(c2ccc(-c3cccc([N+](=O)[O-])c3)o2)N1O", "note": "(stereo unspecified)", "Potency": "inconclusive [inhibitor, partial curve]"}
{"compound": "CN(CCc1cnn(C)c1)Cc1nc(CC2CC2)no1", "Potency": "inactive"}
{"compound": "S=c1[nH]nc(-c2ccco2)n1-c1cccc2ccccc12", "Potency": "inconclusive [inhibitor, partial curve]"}
{"compound": "N#CC1=C(Nc2ccc(Br)cc2)CCC1", "Potency": "inconclusive [inhibitor, partial curve]"}
{"compound": "CN(CC(=O)N1CCCc2c1c(=O)oc1ccc(O)cc21)Cc1ccccc1", "Potency": "inconclusive [inhibitor, partial curve]"}
{"compound": "COc1ccc(-c2nnc(SCC(=O)NCc3ccco3)o2)cc1", "Potency": "inconclusive [inhibitor, partial curve]"}
{"compound": "CN(Cc1ccccn1)C(=O)C1CCC(=O)N(CCc2ccc(Cl)cc2)C1", "note": "(stereo unspecified)", "Potency": "inactive"}
{"compound": "CCOC(=O)c1sc(N2C(=O)C(O)=C(C(=O)c3ccco3)C2c2ccco2)nc1C", "note": "(stereo unspecified)", "Potency": "active: 25.1 µM"}
{"compound": "Cc1ccc(OCCNC(=O)c2cc(C(=O)NCCOc3ccc(C)cc3)cc([N+](=O)[O-])c2)cc1", "Potency": "inactive"}
{"compound": "CC(=O)Nc1cccc(-n2nnc(SCC(=O)c3ccccc3)n2)c1", "Potency": "inconclusive [inhibitor, partial curve]"}
{"compound": "COc1ccc(NC(=O)Nc2nnc(-c3ccncc3)s2)cc1", "Potency": "inactive"}
{"compound": "CC(=O)N1CCc2cc(C(=O)CN3CCN(c4ccccc4F)CC3)ccc21", "Potency": "inconclusive [inhibitor, partial curve, poor fit]"}
{"compound": "COc1cc(S(=O)(=O)N2CCCCC2)c(OC)cc1Br", "Potency": "inconclusive [inhibitor, full curve]"}
{"compound": "CCCC(=O)N(Cc1cc(=O)[nH]c2ccccc12)c1cccc(C)c1", "Potency": "inactive"}
{"compound": "COC(=O)/C=C1/S/C(=N/NC(=O)c2ccc(Cl)cc2Cl)NC1=O", "Potency": "active: 17.8 µM"}
{"compound": "COc1ccc(NC(=O)COC(=O)/C=C/C(=O)OCC(=O)Nc2ccc(OC)c(Cl)c2)cc1Cl", "Potency": "inconclusive [inhibitor, partial curve]"}
{"compound": "Cc1ccc2nc(/C(C#N)=C\\c3ccc(N4CCOCC4)o3)[nH]c2c1", "Potency": "inconclusive [inhibitor, full curve]"}
{"compound": "CCOC(=O)Cn1ncn(-c2ccc(OC(F)(F)F)cc2)c1=O", "Potency": "inactive"}
{"compound": "CCSc1nc2sc3c(c2c(=O)n1-c1ccccc1C)CCN(C)C3", "Potency": "inconclusive [inhibitor, partial curve, poor fit]"}
{"compound": "COc1ccccc1N1CCN(/N=C/C=C\\c2ccco2)CC1", "Potency": "active: 39.8 µM"}
{"compound": "Cc1cc(-c2ccc(S(=O)(=O)N3CCN(c4ccc(Cl)cc4)CC3)s2)on1", "Potency": "inactive"}
{"compound": "COc1ccc(-c2nc3scc(CCNC(=O)c4cccc(Br)c4)n3n2)cc1", "Potency": "inconclusive [inhibitor, single point]"}
{"compound": "O/C(=C\\c1nc2ccccc2[nH]1)c1cccs1", "Potency": "inconclusive [inhibitor, partial curve]"}
{"compound": "Nc1nc(C(=O)N2CCOCC2)nn1C(=O)c1ccc(Cl)cc1", "Potency": "active: 35.5 µM"}
